# In PMC4336329 (PLoS ONE, 2015):
# About 2,200 (0.71%) of roughly 310,000 compounds showed an effect of 50% or more. The effect is printed as a negative number. This is one part of the list.
# Target: human ether-à-go-go-related gene (hERG) potassium channel (human, UniProt Q12809)
# Assay: primary screen, population patch clamp on CHO cells stably expressing hERG
# human ether-à-go-go-related gene (hERG) potassium channel, sequence (Q12809 whole entry, looked up): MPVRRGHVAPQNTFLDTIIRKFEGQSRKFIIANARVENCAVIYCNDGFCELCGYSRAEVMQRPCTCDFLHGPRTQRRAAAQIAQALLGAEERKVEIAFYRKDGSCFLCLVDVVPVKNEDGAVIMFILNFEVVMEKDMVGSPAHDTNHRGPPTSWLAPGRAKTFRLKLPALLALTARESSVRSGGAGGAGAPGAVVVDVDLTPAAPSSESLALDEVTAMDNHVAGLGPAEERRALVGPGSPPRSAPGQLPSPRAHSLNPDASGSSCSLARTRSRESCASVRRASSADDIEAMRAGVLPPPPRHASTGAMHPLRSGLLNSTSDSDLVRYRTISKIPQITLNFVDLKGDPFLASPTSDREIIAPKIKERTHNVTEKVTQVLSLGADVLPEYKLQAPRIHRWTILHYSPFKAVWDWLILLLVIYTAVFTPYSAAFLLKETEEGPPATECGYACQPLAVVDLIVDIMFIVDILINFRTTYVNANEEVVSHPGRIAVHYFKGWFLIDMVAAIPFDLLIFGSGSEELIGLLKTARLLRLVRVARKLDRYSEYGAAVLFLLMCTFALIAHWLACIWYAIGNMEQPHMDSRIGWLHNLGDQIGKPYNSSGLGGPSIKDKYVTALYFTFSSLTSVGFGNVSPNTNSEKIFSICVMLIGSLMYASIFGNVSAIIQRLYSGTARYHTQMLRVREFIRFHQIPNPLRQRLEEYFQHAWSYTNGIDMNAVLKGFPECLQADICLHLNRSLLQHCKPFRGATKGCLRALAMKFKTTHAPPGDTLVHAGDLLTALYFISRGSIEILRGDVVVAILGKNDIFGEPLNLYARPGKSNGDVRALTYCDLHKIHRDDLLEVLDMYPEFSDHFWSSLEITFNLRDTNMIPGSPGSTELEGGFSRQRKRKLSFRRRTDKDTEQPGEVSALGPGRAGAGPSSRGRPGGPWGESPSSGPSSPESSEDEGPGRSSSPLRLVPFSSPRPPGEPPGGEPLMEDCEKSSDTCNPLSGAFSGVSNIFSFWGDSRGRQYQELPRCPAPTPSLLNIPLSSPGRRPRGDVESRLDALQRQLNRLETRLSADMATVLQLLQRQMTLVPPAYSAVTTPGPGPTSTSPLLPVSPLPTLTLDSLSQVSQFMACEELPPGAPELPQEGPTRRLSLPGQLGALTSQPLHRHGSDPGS
row,SMILES,"hERG current change (%, negative = inhibition) at 1uM"
1,CCc1nnc(NC(=O)CSc2nnc(Cc3cc(=O)[nH]c(=O)[nH]3)n2-c2ccc(OC)cc2)s1,-2.63%
2,CCn1c(C)nc2cc(C(=O)NNS(=O)(=O)c3cc(Br)ccc3Br)ccc21,8.68%
3,Cn1cc(CNCc2cn[nH]c2-c2ccc(F)cc2)c(-c2ccc3c(c2)OCCO3)n1,-3.31%
4,Cc1ccc(NC(=O)C2=C(c3ccccc3)S(=O)(=O)CCS2(=O)=O)cc1,13.1%
5,CC(Oc1ccc2ccc(=O)oc2c1)C(=O)NC1CC(C)(C)NC(C)(C)C1 (stereo not shown),20.5%
6,COc1cccc(-n2c(SCC(=O)Nc3ccc4c(c3)CCC4)nc3ccccc3c2=O)c1,5.97%
7,OCCNc1ncnc2c1sc1nc(N3CCOCC3)c3c(c12)CCC3,1.75%
8,O=C(c1ccccc1O)N1CCOCC1,6.03%
9,COc1ccc2nc(NC(=O)c3ccccc3[N+](=O)[O-])sc2c1,1.83%
10,O=C1/C(=C/c2ccc([N+](=O)[O-])cc2)C=C(c2ccccc2)N1c1ccccc1,-0.029%
11,CCOC(=O)CSc1c(-c2ccccc2)c2cc(Cl)ccc2[nH]c1=O,4.76%
12,Cc1c(C(=O)N2CCCCC2)c(S(=O)(=O)N2CCN(c3ccc(Cl)cc3)CC2)c(C)n1C,-4.76%
13,COC(=O)c1ccc(C2/C(=C(\O)c3cccc(OC)c3)C(=O)C(=O)N2CCCN2CCOCC2)cc1 (stereo not shown),15.1%
14,CC(C)(C)c1ccc(S(=O)(=O)CC(O)CSc2nc3c(cc2C#N)CCCC3)cc1 (stereo not shown),11.1%
15,c1ccc(-n2ncc3c(N4CCCC4)ncnc32)cc1,2.65%
16,Cc1nc2c3cnn(-c4ccc(C)c(C)c4)c3ncn2n1,14.2%
17,Cc1sc2nc(Cc3ccccc3)[nH]c(=O)c2c1-c1ccccc1,17.3%
18,COc1ccc(CCNC(=O)Nc2ccc([N+](=O)[O-])cc2)cc1OC,-5.79%
19,COc1ccc2[nH]cc(CCNC(=O)Cc3ccc(Cl)cc3)c2c1,14.7%
20,Cc1ccc(N2C(=O)c3ccc(C(=O)N4CCN(c5ccccc5F)CC4)cc3C2=O)cc1,7.2%
21,CNC(=O)c1ccc(Nc2nnc(-c3ccc(C(N)=O)cc3)c3ccccc23)cc1,10%
22,COc1ccc(CN2CNc3c(c(=O)n(C)c(=O)n3C)C2)cc1,6.88%

row,SMILES,"hERG current change (%, negative = inhibition) at 1uM"
1,CCn1c(CNc2ccc(Cl)cc2)nnc1SCc1ccc(C)cc1,9.6%
2,Cc1cccc(NC(=S)NNC(=O)c2ccc(O)cc2O)c1C,20.3%
3,COCCCNC(=O)CN1C(=O)COc2ccc(S(=O)(=O)N3CCOCC3)cc21,0.471%
4,COc1ccc(S(=O)(=O)N(C)C)cc1NC(=O)CSC(C)C(=O)Nc1cc(C)on1 (stereo not shown),2.09%
5,COC(=O)c1ccc(OCC(O)CN2C(=O)c3ccccc3S2(=O)=O)cc1 (stereo not shown),15.5%
6,COc1ccc(CCNC(=O)c2ccc3c(c2)SC2=NS(=O)(=O)CCN23)cc1,-7.12%
7,O=C(CCn1c(=O)[nH]c2ccsc2c1=O)N1CCc2ccccc2C1,9.65%
8,COc1ccc(C(=O)OCC(=O)NCc2ccco2)cc1OC,14.9%
9,COc1ccc(CC(=O)Nc2ccc(F)c(Cl)c2)cc1S(=O)(=O)N1CCOCC1,-2.62%
10,Cc1ccc(C(CC(=O)c2ccc(Cl)cc2)C(=O)O)cc1 (stereo not shown),2.03%
11,O=C(CCN1C(=O)c2ccc(Br)cc2C1=O)NC1CCCCC1,15.6%
12,CCOC(=O)c1nnn(-c2nonc2-n2cccc2)c1CN1CCC(C)CC1,12.3%
13,CC1=C(C(=O)Nc2cccc(F)c2)C(c2ccsc2)C2=C(CC(C)(C)CC2=O)N1 (stereo not shown),11.5%
14,Cc1[nH]n(C(N)=S)c(=O)c1N=Nc1cc(C(F)(F)F)ccc1Cl,14%
15,O=C(NCCN1CCN(c2ccccc2)CC1)C1CCCN(S(=O)(=O)c2cnc[nH]2)C1 (stereo not shown),13.6%
16,FC(F)(F)c1cccc(-n2nnnc2C2(N3CCOCC3)CCCCC2)c1,1.96%
17,CCc1ccc(N(C(=O)c2csnn2)C(C(=O)NCc2ccccc2)c2ccco2)cc1 (stereo not shown),6.67%
18,COc1ccc(CN2CCNC(=O)C2CC(=O)NC2CC(C)(C)CC(C)(C)C2)cc1OC (stereo not shown),-0.179%
19,CC(NC(=O)c1cc2ccccc2oc1=O)c1ccc(O)cc1 (stereo not shown),8.69%
20,Cc1ccc(CC(=O)N(C)CC(=O)N(CC(C)C)c2c(N)n(CC(C)C)c(=O)[nH]c2=O)cc1C,5.19%
21,Cc1onc(-c2c(F)cccc2Cl)c1C(=O)NC(=S)NC1CCSC1=O (stereo not shown),9.24%
22,O=C(NCCCN1CCCCC1)C1CCN(S(=O)(=O)N2CCC3(CC2)OCCO3)CC1,12.5%

row,SMILES,"hERG current change (%, negative = inhibition) at 1uM"
1,O=C(c1ccc(C(F)(F)F)cc1)n1ccc(-c2cccs2)n1,16.1%
2,COc1cc(C(=O)NNC2=CC(=O)CC(C)(C)C2)cc(OC)c1OC,6.45%
3,CCCCN(CC)CCNC(=O)c1cc2c(=O)[nH]c3ccccc3c2n1C,11.5%
4,Cc1ccccc1C(=O)Nc1c(C(=O)N2CCCC2)cnn1-c1ccccc1,3.32%
5,Cn1nc(-c2ccccc2)c(CN2CCN(c3ncccn3)CC2)c1Cl,10.8%
6,C/C(=N\NC(=O)c1ccccc1)c1c(O)n(C2CCCCC2)c(=O)[nH]c1=O,15.8%
7,CCOCC(=O)N1CCN(c2ccc([N+](=O)[O-])cc2)CC1,-48.4%
8,CCN1C(=O)C2(C(C#N)=C(N)Oc3c2c(C)nn3-c2ccccc2)c2ccccc21 (stereo not shown),2.45%
9,COc1ccc(CN2CCSc3sccc3C2=O)cc1,3.85%
10,COC(=O)c1ccc(NC(=O)CCOc2ccccc2)cc1,7.08%
11,COCCCNC(=O)CN1C(=O)COc2ccc(S(=O)(=O)N3CC(C)CC(C)C3)cc21 (stereo not shown),7.83%
12,Cc1ccccc1OCC(=O)OCC(=O)c1ccc(OC(=O)c2ccccc2)cc1,-11.4%
13,CCCOc1ccc(C(=O)Nc2ccc(S(=O)(=O)NC3=NCCCCC3)cc2)cc1,15.5%
14,COc1ccc(N(C(=O)CNC(=O)c2cccs2)C(C(=O)NCC2CCCO2)c2ccccc2)cc1 (stereo not shown),19%
15,COC(=O)c1nn(-c2c(C)n(C)n(-c3ccccc3)c2=O)cc1O,6.83%
16,COc1cc(NC(=O)C2CCC(CNc3c(N4CCCCC4)c(=O)c3=O)CC2)cc(OC)c1 (stereo not shown),15.1%
17,COc1ccc(CCNC(=O)CCn2c(=O)oc3ccccc32)cc1,0.676%
18,COCCNC(=O)C(c1cccnc1)N(Cc1ccc(C)cc1)C(=O)Cn1nnc2ccccc21 (stereo not shown),-0.938%
19,COc1ccc(-c2csc(N(CCc3ccc(OC)c(OC)c3)C(=O)COc3ccccc3)n2)cc1,23.4%
20,CN1CCN(C(=O)c2cc(Cl)cc(Cl)c2)CC1,8.2%
21,COc1ccc(N(C(=O)c2ccco2)C(C(=O)NC2CCCC2)c2ccncc2)cc1OC (stereo not shown),13.2%
22,Cc1ccc(/C=C\c2nccc3c2[nH]c2ccccc23)cc1,3.86%

row,SMILES,"hERG current change (%, negative = inhibition) at 1uM"
1,COC(=O)C(C)(C(=O)OC)c1ccc(C(F)(F)F)cc1[N+](=O)[O-],14.2%
2,CCOc1ccc(CCNC(=O)CCC(=O)N2CCOc3ccc(C)cc32)cc1OCC,5.67%
3,N#Cc1ccc(/C=N/NC(=O)CCc2ccc(S(=O)(=O)N3CCOCC3)cc2)cc1,-5.11%
4,COCCNC(=O)CSc1nc(-c2ccccc2)cs1,1.28%
5,COc1cccc(C2NC(=O)NC(C)=C2C(=O)OCC2CCCO2)c1 (stereo not shown),11.8%
6,CC1CCC(=NNC(=O)c2ccccc2-n2cccc2)CC1 (stereo not shown),6.73%
7,COc1ccc(OC)c(S(=O)(=O)NCC2CCCO2)c1 (stereo not shown),13%
8,COC(=O)Cc1c(O)ccn(Cc2ccc3c(c2)OCO3)c1=O,16.9%
9,CC(C)CC(=O)Nc1cc(C(F)(F)F)ccc1N1CCOCC1,11%
10,COc1cccc(SCc2noc(C(=O)NC(C)C)c2C(=O)O)c1,6.41%
11,Cc1ccc(C)c(N2CC(=O)N(c3cc(C)ccc3C)CC2=O)c1,15.9%
12,Cc1ccccc1C(=O)NCCCNC(=O)c1ccccc1C,8.34%
13,NC(=O)CSc1nnc(CNc2cccc(Cl)c2)n1CCc1ccccc1,3.32%
14,Cc1cc(C)cc(N(CC(=O)N2CCN(c3ccccc3)CC2)S(=O)(=O)c2c(C)noc2C)c1,-9.61%
15,CCOC(=O)N1CCN(S(=O)(=O)c2ccc(OC)c(C(=O)N3CCCCC3)c2)CC1,12.8%
16,CC(C)c1ccccc1NC(=O)CCc1nc2ccccc2s1,-9.96%
17,O=C(c1cc(COc2cccc(C(F)(F)F)c2)on1)N1CCc2ccccc2C1,14.5%
18,COc1cc(OC)nc(NC(=O)CS(=O)(=O)c2ccccc2)n1,-0.298%
19,COc1ccc(CCC(C)NCc2cccc(Br)c2)cc1 (stereo not shown),-32.1%
